Patent US20240190987A1, “Engineered EpCam Binding Antibodies” (TigaTX, priority 2021, published 2024)
Numbering of substitutions follows the chain as printed. One block for each binder: values may come before it.

What was measured:
Ab1073 = assay: kinetics
[1] = target: cyEpCAM ECD Ag0066 (cyno); assay: SPR single-cycle
[2] = target: T1, huEpCAM ECD Ag0065 (human) (UniProt P16422); assay: SPR single-cycle
T1 sequence: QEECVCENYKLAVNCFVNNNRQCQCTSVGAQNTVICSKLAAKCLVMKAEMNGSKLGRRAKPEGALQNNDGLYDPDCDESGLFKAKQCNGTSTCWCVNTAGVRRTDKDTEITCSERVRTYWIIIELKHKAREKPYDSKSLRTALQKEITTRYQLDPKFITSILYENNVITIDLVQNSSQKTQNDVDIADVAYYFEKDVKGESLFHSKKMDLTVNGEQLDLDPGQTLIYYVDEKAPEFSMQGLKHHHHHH

Kd (Ab1073): 20 nM
B1: Ab1102 (bispecific antibody)
scFv-Fc: QVQLVQSGAEVKKPGASVKVSCKASGYTFTSYWMHWVRQHPGQGLEWMGMIHPNSGGTNYAQKFQGRVTMTRDTSTSTVYMELSSLRSEDTAVYYCAMGDYVSADYWGQGTLVTVSSGGGGSGGGGSGGGGSEIVLTQSPGTLSLSPGERATLSCRASSSVSSSYLHWYQQKPGQAPRLLIYSTSSRATGIPDRFSGSGSGTDFTLTISRLEPEDFAVYYCQQYSGYQFTFGQGTKLEIKGGGGS[human IgG1 Fc with changes left out]
light: DIQMTQSPSSLSASVGDRVTITCSASSSVSSGNFHWYQQKPGKAPKLLIYRTSNLASGVPSRFSGSGSGTDYTLTISSLQPEDFATYYCQQWSGYPYTFGQGTKVEIKRTVAAPSVFIFPPSDEQLKSGTASVVCLLNNFYPREAKVQWKVDNALQSGNSQESVTEQDSKDSTYSLSSTLTLSKADYEKHKVYACEVTHQGLSSPVTKSFNRGEC
heavy: EVQLVESGGGLVQPGGSLRLSCAASGFTFSNYWMNWVRQAPGKGLEWVAQIRVKSENFATHYADSVKGRFTISRDDSKSTVYLQMNSLRAEDTAVYYCTLYDGFSWGQGTLVTVSSASTKGPSVFPLAPSSKSTSGGTAALGCLVKDYFPEPVTVSWNSGALTSGVHTFPAVLQSSGLYSLSSVVTVPSSSLGTQTYICNVNHKPSNTKVDKKV[human IgG1 Fc with changes left out]

Kd [1]: 8.7 nM
Kd [2]: 9.9 nM
B2: Ab0843 (antibody)
heavy: EVQLVESGGGLVQPGGSLRLSCAASGFTFSNYWMNWVRQAPGKGLEWVAQIRVKSENFATHYADSVKGRFTISRDNSKNTLYLQMNSLRAEDTAVYYCTLYDGFSWGQGTLVTVSSASTKGPSVFPLAPSSKSTSGGTAALGCLVKDYFPEPVTVSWNSGALTSGVHTFPAVLQSSGLYSLSSVVTVPSSSLGTQTYICNVNHKPSNTKVDKKV[human IgG1 Fc with changes left out]
light: B1 light with I2N, L48W

Kd [1]: 7.5 nM
Kd [2]: 6.6 nM
B3: Ab0837 (antibody)
heavy: EVQLVESGGGLVQPGGSLRLSCAASGFTFSNYWMNWVRQAPGKGLEWVAQIRVKSENFATHYADSVKGRFTISRDNSKNTLYLQMNSLRAEDTAVYYCTLYDGFSWGQGTLVTVSSASTKGPSVFPLAPSSKSTSGGTAALGCLVKDYFPEPVTVSWNSGALTSGVHTFPAVLQSSGLYSLSSVVTVPSSSLGTQTYICNVNHKPSNTKVDKKV[human IgG1 Fc with changes left out]
light: B1 light with L48W
